In PubChem BioAssay AID488969 (Vanderbilt High Throughput Screening Facility, 2010):
Whole data set: some 110,000 compounds, median “z-score” near -0.1, cut for the highest 2% near 2. Some of the results follow.

molecular target: Metabotropic glutamate receptor 8 (Rattus norvegicus) (UniProt P70579); assay: mGluR8 Gi/Go-coupled signaling modulation – cell-based, rat, thallium flux, HTS, primary screen (AID 488969); details: HEK293 rat mGluR8, GIRK (G protein-gated inwardly rectifying potassium channel) thallium flux, FluoZin2; at 10 µM; stronger effect = higher value; submaximal glutamate (EC20) added with thallium
Chain of UniProt P70579 (P70579 whole entry, looked up): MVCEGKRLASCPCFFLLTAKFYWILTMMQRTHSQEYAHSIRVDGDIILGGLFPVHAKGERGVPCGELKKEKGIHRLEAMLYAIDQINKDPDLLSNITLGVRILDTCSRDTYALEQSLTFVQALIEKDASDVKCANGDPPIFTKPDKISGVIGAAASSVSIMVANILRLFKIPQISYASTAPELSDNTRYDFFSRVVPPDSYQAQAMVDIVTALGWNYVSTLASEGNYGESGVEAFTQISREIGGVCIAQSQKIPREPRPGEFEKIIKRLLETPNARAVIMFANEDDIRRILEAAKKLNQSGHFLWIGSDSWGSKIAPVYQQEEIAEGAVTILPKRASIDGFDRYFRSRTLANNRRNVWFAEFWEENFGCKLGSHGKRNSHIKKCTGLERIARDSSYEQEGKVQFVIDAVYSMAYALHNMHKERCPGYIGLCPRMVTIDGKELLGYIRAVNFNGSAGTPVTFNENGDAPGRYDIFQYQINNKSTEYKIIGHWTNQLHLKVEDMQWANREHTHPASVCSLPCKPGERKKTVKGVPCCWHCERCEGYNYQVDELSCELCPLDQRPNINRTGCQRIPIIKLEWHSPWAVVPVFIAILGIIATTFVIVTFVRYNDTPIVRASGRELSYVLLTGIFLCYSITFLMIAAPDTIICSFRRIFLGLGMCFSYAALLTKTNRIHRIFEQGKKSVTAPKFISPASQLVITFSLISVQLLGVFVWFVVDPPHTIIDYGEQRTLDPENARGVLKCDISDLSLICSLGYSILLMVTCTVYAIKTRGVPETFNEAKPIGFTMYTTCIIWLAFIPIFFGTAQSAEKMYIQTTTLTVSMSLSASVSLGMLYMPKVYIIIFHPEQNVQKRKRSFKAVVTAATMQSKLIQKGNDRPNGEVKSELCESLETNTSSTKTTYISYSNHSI

Structure (SMILES) | z-score
COC(=O)c1sccc1NC(=S)N1CCCCC1C (configuration not stated) | 0.028
CCC(C)(C)NC(=O)CN(C(=O)c1snc(C(N)=O)c1N)c1ccc2c(c1)OCO2 | -0.0132
CSc1nc(-c2ccc(Cl)cc2)nn1S(=O)(=O)c1ccc(Cl)cc1 | -0.033
COc1ccc(NC(=S)NNC(=O)Cn2nc(C(F)F)cc2C(F)F)cc1 | -0.154
CCOc1ccc(NC(C)c2cc(Cl)ccc2O)cc1 (configuration not stated) | -0.419
Cc1ccc(SCC(=O)N2CC(C)OC(C)C2)cc1 (configuration not stated) | 0.158
Clc1ccc(CSc2nnc([C@@H]3CCCN3)o2)cc1Cl | 0.393
CCOC(=O)c1ccc2c(c1)sc(=NC(=O)c1ccco1)n2CCOC | -0.0675
N#CC1=C(N)Nc2ncnn2C1c1ccccc1 (configuration not stated) | -0.33
O=c1cc(O)c2sc(Nc3ccc(F)cc3)nc2[nH]1 | -0.112
CCN(CC)c1ccc(C=Nc2ccccc2C)c(O)c1 | 0.0072
Oc1c(Br)cc(Br)cc1/C=N/N1CCN(Cc2ccccc2)CC1 | 0.684
COc1ccc(C(=O)/C=C/Nc2ccc([N+](=O)[O-])cc2C)cc1OC | -0.239
Cc1cccc(NC(=O)CN2C(=O)N/C(=C/c3ccc(C)s3)C2=O)c1 | -0.345
CCCCC(c1nnnn1CCOC)N1CCN(Cc2ccccc2)CC1 (configuration not stated) | -0.0652
COc1ccccc1OCc1ccc(C(=O)N2CCN(C(=O)c3ccco3)CC2)cc1 | 0.733

Structure (SMILES) | z-score
CC(C)NC(=O)COC(=O)c1cc(F)c(F)cc1Cl | -0.412
CCCOc1ccccc1C(=O)N(Cc1ccco1)C1CCS(=O)(=O)C1 (configuration not stated) | -0.441
COc1ccc(NC(=O)Cc2c(SC)c3ccccc3n2Cc2ccccc2)cc1 | -0.073
CCCCCc1ccc(S(=O)(=O)NCCc2ccncc2)cc1 | 0.483
COC(=O)CSc1nnc(-c2ccco2)n1-c1ccc(C)cc1 | 0.151
O=S(CC(O)COCc1ccc(Cl)cc1)c1ccccn1 (configuration not stated) | 0.29
CCOC(=O)c1oc2ccccc2c1CSc1nnnn1-c1ccc(C)cc1 | -0.389
O=C1c2ccccc2C(Nc2cccnc2)N1Cc1ccccc1 (configuration not stated) | -0.0395
Cc1ccc2c(c1)nnn2C1CCN(C(=O)NC23CC4CC(CC(C4)C2)C3)CC1 | -0.32
CCOC(=O)c1c(NC(=S)Nc2ccccc2)sc2c1CC(C)(C)SC2 | -0.0674
Cn1c(=O)c2nc(Cl)n(Cc3ccc(Cl)cc3Cl)c2n(C)c1=O | -1.06
Cc1ccc2oc(=O)c3cc(C(=O)NCc4ccco4)sc3c2c1 | -0.267
CSc1nc2c(c(-c3ccc(O)cc3)c1C#N)CCC2 | -0.648
Cc1cccc(C)c1NC(=S)NN1CCN(C)CC1 | 0.3
O=C(NCC1CCCO1)c1ccc(S(=O)(=O)N2CCC(c3nc4ccc(Cl)cc4[nH]3)CC2)cc1 (configuration not stated) | 0.143
CCC(CC)NC(=O)CSc1nnc(-c2ccc(OC)cc2)n1C(C)C | 1.45
